According to PubChem BioAssay AID493208 (National Center for Advancing Translational Sciences (NCATS), 2011):
The campaign covered roughly 44,000 compounds. About 340 (0.77%) were called active. Inconclusive results, whose numbers are uncertain, are shown with a selection of clear calls. The call rests on the fitted dose curve; in most records, active means well fitted inhibition curve with a large enough effect; inconclusive means small, poorly fitted or top-dose-only effect; inactive means flat fitted curve, though single readings scatter. No potency is given beside an inconclusive call; the fits are too rough.

Assay: Acumen qHTS Assay for Inhibitors of the mTORC1 Signaling Pathway in MEF (Tsc2-/-, p53-/-) Cells: Sytravon; further: nearly all actives have a fitted effect of over 50% in size
Conditions: phospho-rpS6 immunofluorescence/PI, 24 h; series mostly up to 38.3 µM
Outline: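 Read-out: phospho-S6 Alexa-488 intensity over PI intensity per well, scored as % active cells using thresholds from rapamycin (7.5 nM) and DMSO controls. Tsc2-/-, p53-/- MEFs exposed to compound for 24 h; PI cell count recorded as viability.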
Potency means the concentration at half of the fitted maximal effect; tags describe the fitted curve by direction and shape.

SMILES	Potency
CCCn1c(/C=C/c2ccccc2)nc2ccccc21	inactive
CCC1CCCCN1CCCNC(=O)c1ccc2c(c1)c(C)c(C)n2CC (centres undefined)	inconclusive [falling, single point]
COc1ccc(-c2nn(C)c3sc(C(=O)NCCN(C)C)cc23)cc1OC	inconclusive [falling, single point]
COc1ccc(C(=O)CC2(O)C(=O)N(Cc3ccccc3)c3ccc(Br)cc32)cc1 (centres undefined)	inconclusive [falling, single point]
O=C(NCCSc1c[nH]c2ccccc12)c1ccc(Cl)cc1	inactive
COc1ccc(CNC(=O)c2cc(-c3ccc(Br)s3)nc3ccccc23)c(OC)c1	inconclusive [falling, partial curve]
CCOC(=O)c1sc2ncn(CC(=O)Nc3ccc(F)cc3F)c(=O)c2c1C	inconclusive [activator, single point]
Cc1ccc(O)c(NC(=O)CCS(=O)(=O)c2nc(-c3cccs3)cc(C(F)(F)F)n2)c1	inconclusive [falling, partial curve, poor fit]
Cc1ccc(C(C)C)c(OCC(=O)Nc2cc(-c3nc4ccccc4[nH]3)ccc2C)c1	active: 13.1 µM
CCCCc1ccc(C(=O)Nc2ccc3nc(N4CCN(CC)CC4)cc(C)c3c2)cc1	active: 2.07 µM
COc1ccc(C)cc1NC(=O)c1cc(S(=O)(=O)N2CCC(C)CC2)ccc1F	inactive
CCCc1cc(C(=O)Nc2c(C)nn(Cc3c(Cl)cccc3Cl)c2C)no1	inconclusive [falling, single point]
O=S(=O)(NCC(c1cccs1)S(=O)(=O)c1ccccc1)c1ccc(F)c(C(F)(F)F)c1 (centres undefined)	inactive
CC(=O)N1c2ccc(S(=O)(=O)NCC3CCC(C(=O)Nc4cc(C)ccc4C)CC3)cc2CC1C (centres undefined)	inactive
CN(C)c1ccc(/C=C(\C#N)c2nc(-c3ccc(Cl)c(Cl)c3)cs2)cc1	inconclusive [falling, single point]
Cc1ccccc1-c1noc(-c2ccc(N3CCOCC3)c([N+](=O)[O-])c2)n1	inactive
Cc1ccc(Cn2c(CN3CCC(C(=O)NCCc4ccccc4)CC3)cc3ccccc32)cc1	inconclusive [falling, single point]
O=C(NCCc1nc2ccccc2n1Cc1ccc(Cl)cc1Cl)c1ccco1	active: 20.7 µM
CCN(CC)c1sc(S(=O)(=O)c2ccccc2)nc1S(=O)(=O)c1ccc(C)cc1	inconclusive [falling, single point]
